The whole screen tested about 52,000 compounds, of which about 4,300 (8.3%) were called active. Cut-off read from the data, not from the text of the source: active = survival mostly below about 52% (no sharp cut-off); inactive = mostly above about 56%. The list shows a part of the results.
test system: DeltatarO mutant; assay: growth inhibition of S. aureus wild type versus tarO mutant, primary screen, teichoic acid synthesis inhibitors, RN4220, OD600 (AID 463173); conditions: OD600, 18 h, active compounds read low, screened at 18.75 µg/mL (by protocol)

Compound | survival
Cc1ccc(C)c(N2CCN(C(=O)c3cnc4c(-c5ccccc5)c(C)nn4c3C)CC2)c1 | inactive: 89%
Cc1ccc(/C=C(\C#N)C(=O)Nc2cc(C)ccc2C)cc1 | inactive: 64%
COc1cc(C)c(Cl)cc1S(=O)(=O)NCCc1c(C)[nH]c2ccccc12 | active: 37%
Cc1ccc(C)c(CN2C(=O)c3ccccc3S(=O)c3ccc(C(=O)NCc4ccccc4Cl)cc32)c1 (centres undefined) | inactive: 122%
COc1cccc(CNC(=O)CN2C(=O)N(c3cc(C)ccc3C)S(=O)(=O)c3ccccc32)c1OC | inactive: 73%
COc1cccc(NC(=O)c2sc3nc(N4CCOCC4)c4c(c3c2N)CC(C)(C)OC4)c1 | inactive: 96%
Cc1cccc(NC(=O)NCCn2c(=O)oc3ccc(C)cc32)c1 | inactive: 71%
CCC(C)(C)n1nnnc1CN(Cc1ccc(Cl)cc1)CC1CCCO1 (centres undefined) | inactive: 76%
CCN(CC)CCC(=O)N1c2ccccc2CCc2ccc(NC(=O)OC(C)C)cc21 | inactive: 84%
Cc1oc2c(c1C(=O)NCc1cccc(Br)c1)C1=NCCN1C=N2 | inactive: 97%
COc1cc(NC(=O)C(CC(C)C)NS(=O)(=O)c2ccc3c(c2)CCCC(=O)N3)cc(OC)c1 (centres undefined) | inactive: 67%
Cc1ccc(CNC(=O)CCCn2c(=O)c3ccccc3n(CC(=O)C(C)(C)C)c2=O)cc1 | inactive: 89%
CCOC(=O)Cn1c(=O)n(CC2CCCO2)c2nc(-c3ccc(OC)cc3OC)nc(C(N)=O)c21 (centres undefined) | inactive: 76%
O=C(CC1N=C2c3ccccc3N=C(SCc3ccc(Cl)cc3)N2C1=O)NCCc1ccccc1 (centres undefined) | inactive: 73%
CCOC(=O)c1c(C)[nH]c(C)c1S(=O)(=O)NCC(=O)Nc1cccc(C(F)(F)F)c1 | inactive: 88%
CC1CCCN(C(=O)Cn2c(=O)oc3cc(S(=O)(=O)N4CCCCC4)ccc32)C1 (centres undefined) | inactive: 83%
CCOc1ccc(C2c3c(-c4ccc(C)cc4)n[nH]c3C(=O)N2c2ccc(Cl)cc2)cc1 (centres undefined) | inactive: 91%
CCOC(=O)c1c(NC(=O)c2cc(CC)on2)sc(C)c1C | inactive: 144%
O=C(Nc1ccc(-c2cc(C(F)(F)F)nn2-c2ccccc2)cc1)c1cccc(F)c1 | active: 26%
CCN1CCC(N(Cc2cccc(OC)c2)C(=O)Nc2cccc(C(F)(F)F)c2)CC1 | inactive: 102%
CCN(CC)c1ccc(C(=O)NCc2ccc3c(c2)CCN3C(=O)c2ccccc2)cc1 | inactive: 83%
Cc1ccc2c(c1)N(C(=O)CCC(=O)Nc1ccccc1Cl)CC(C)O2 (centres undefined) | inactive: 105%
O=c1cc(CSc2ncn[nH]2)[nH]c2c(Cl)cccc12 | inactive: 98%

Compound | survival
CCOc1ccccc1NC(=O)c1cn(C2CCCC2)c(=O)c2c1c1ccccc1n2C | inactive: 122%
COc1ccccc1NC(=O)C1=C(C)Nc2nc(SCc3ccccc3)nn2C1c1ccccn1 (centres undefined) | inactive: 65%
CN(C)c1nc(Nc2ccccc2)nc(N(C)C)n1 | inactive: 78%
COc1ccc(-n2c(=O)c3sc4ccccc4c3n(CC(=O)Nc3cccc(C)c3)c2=O)cc1 | inactive: 72%
CCc1cc(C#N)c(O)cn1 | inactive: 91%
COc1ccccc1NC(=O)c1cc(S(=O)(=O)N(C)C2CCCCC2)ccc1F | inactive: 85%
O=C(/C=C/c1ccco1)NC(=S)Nc1ccccc1O | inactive: 100%
Cc1ccc(NC(=O)C(Cc2ccccc2)NS(=O)(=O)c2ccc3c(c2)oc(=O)n3C)c(Cl)c1 (centres undefined) | inactive: 95%
CCOC(=O)N1CCc2c(sc3c2c(=O)n(CCc2ccccc2)c(=O)n3Cc2cc(C)ccc2C)C1 | inactive: 75%
COCCNC(=O)Cn1cc(S(=O)(=O)Cc2ccccc2Cl)c2ccccc21 | inactive: 124%
Cc1cccc(-c2nc(SCC(=O)Nc3cc(C)on3)c3c(=O)n(C)c(=O)n(C)c3n2)c1 | inactive: 68%
O=C(CSc1nc2ccccc2c(=O)[nH]1)c1ccc(O)cc1O | inactive: 83%
COCCCNC(=O)c1ccc2c(c1)N=C(C)c1c(C)ccc(C)c1S2 | inactive: 69%
COc1ccc(N2CCN(c3ccc(-c4nc(-c5ccccc5C)no4)cc3[N+](=O)[O-])CC2)cc1 | inactive: 63%
Cc1ccc(NC(=O)N2CCC(N3CCN(Cc4ccccc4)C(=O)C3=O)CC2)cc1Cl | inactive: 75%
Cc1nnc(NC(=O)CSc2nccn2-c2cccc(Cl)c2)s1 | inactive: 77%
CC1CCCN(S(=O)(=O)c2cc3c(cc2Cl)NC(=O)CO3)C1 (centres undefined) | inactive: 94%
O=C(O)CC1NC(=O)N(c2ccccc2)C1=O (centres undefined) | inactive: 94%
Cc1nc2c(c(C)c1CCC(=O)Nc1cccc(C(F)(F)F)c1)c(=O)n(C)c(=O)n2C | inactive: 84%
O=C(CCC(=O)N1CC2CCCN2c2ccccc21)NCc1ccccc1Cl (centres undefined) | inactive: 69%
COc1ccc(C(=O)Nc2ccccc2C(=O)OCc2cc(=O)n3c4c(sc3n2)CCCC4)cc1 | inactive: 72%
COc1cc(OC)c(Nc2nc3ccc(C)cc3n3nnnc23)cc1Cl | inactive: 130%
CN1C(=O)CC(N2CCN(C/C=C/c3ccccc3)CC2)C1=O (centres undefined) | inactive: 78%

Compound | survival
COc1ccccc1CNc1nc2nc(C)c(Cl)c(C)n2n1 | inactive: 100%
CO/N=C/c1ccc(OC)c(OC)c1 | inactive: 90%
COC(=O)c1c(NC(=O)c2cccc(OC)c2)sc2c1CCC(C(C)(C)C)C2 (centres undefined) | active: 43%
COc1ccc(CCN(Cc2nc3ccccc3c(=O)[nH]2)C(=O)c2ccco2)cc1 | inactive: 101%
Nc1nonc1-c1nc2ccccc2n1CC(=O)Nc1ccccc1C(=O)O | active: 45%
CCOc1ccccc1N(CC)C(=O)c1ccc2c(=O)n3c(nc2c1)CCCCC3 | inactive: 112%
Cc1cccc(C)c1NC(=O)CSc1nc(-c2cccs2)cc(C(F)(F)F)n1 | inactive: 62%
Cc1cn2c(=O)cc(COc3ccc(C(C)(C)C)cc3)nc2s1 | inactive: 70%
CC(C)CCn1c(SCc2c(F)cccc2Cl)nc2ccsc2c1=O | inactive: 94%
O=C(Cn1c(=O)c2cccn2c2ccc(F)cc21)NCc1cccc(Cl)c1 | inactive: 80%
Cc1cc2nn(-c3ccccc3)nc2cc1NC(=O)Cc1ccc(Cl)cc1 | inactive: 89%
CC(C)N(Cc1ccccc1)S(=O)(=O)c1ccc(N2CCCCS2(=O)=O)cc1 | inactive: 85%
CCCNS(=O)(=O)c1ccc(OCC(=O)N2CCCCC2)cc1 | inactive: 86%
CN(C)S(=O)(=O)c1ccc(C(=O)N(Cc2cccnc2)c2nc3c(F)cc(F)cc3s2)cc1 | inactive: 86%
N#Cc1ccccc1Cn1c(SCC(=O)NCc2ccccc2)nc2ccccc21 | inactive: 72%
CN(C)S(=O)(=O)N1CCC(N2CCN(Cc3ccc(F)cc3)C(=O)C2=O)CC1 | inactive: 113%
CC1=C(C(=O)N2CCCCC2)C(c2ccc(N(C)C)cc2)C2=C(CCCC2=O)N1 (centres undefined) | inactive: 95%
CCc1cccc2c(-c3ccccc3)nc(SCC(=O)Nc3ccc(OC)cc3)nc12 | inactive: 82%
CCOc1ccc2nc(NC(=O)c3nc(SC(C)C)ncc3Cl)sc2c1 | active: 41%
CC1CCN(C(=O)Cn2c(=O)n(-c3ccc(Cl)cc3)c(=O)c3c4c(sc32)CCC4)CC1 | inactive: 64%
COc1ccc(-c2nsc(NC(=O)c3ccccc3Br)n2)cc1 | active: 34%
CC(C)(C)NC(=O)c1cccc(C(=O)NC(C)(C)C)c1 | inactive: 107%
COc1cc(NC(=O)C2CCCN(S(=O)(=O)c3cn(C)cn3)C2)cc(OC)c1 (centres undefined) | inactive: 95%

Compound | survival
N#CC(C#N)=Cc1cn(CC(=O)Nc2ccccc2)c2ccccc12 | inactive: 66%
CC(=O)N1CCc2c(sc3c2c(=O)n(CCc2ccccc2)c(=O)n3Cc2ccc(F)cc2)C1 | inactive: 80%
CN(C)S(=O)(=O)N1CCN(Cc2ccccc2)CC1 | inactive: 91%
CCOc1ccc(NC(=O)c2sc3nc(-c4ccc(OC)cc4)cn3c2C)cc1 | inactive: 85%
Cc1ccccc1NC(=O)Cn1c(=O)n(CCCCCC(=O)NCc2ccc3c(c2)OCO3)c(=O)c2sccc21 | inactive: 84%
Cc1c(Cl)cccc1NC(=O)CSc1nc(=O)n(CCN2CCOCC2)c2c1CCC2 | inactive: 78%
CCc1ccc(-n2c(CCC(=O)O)ccc2-c2cccs2)cc1 | inactive: 52%
COc1ccc(-n2ccn(CC(=O)Nc3ccccc3C(F)(F)F)c(=O)c2=O)cc1OC | inactive: 80%
Cc1nnc(N2CCN(C(=O)Nc3cc(F)ccc3F)CC2)c2nn(-c3ccc(Cl)cc3)c(C)c12 | inactive: 88%
O=C(NC1CC(=O)N(c2ccc(Cl)cc2)C1)C(=O)c1c[nH]c2ccccc12 (centres undefined) | inactive: 77%
O=C(Nc1ccccc1)N1CCCC(c2nc(-c3cccs3)no2)C1 (centres undefined) | inactive: 91%
CCOC(=O)c1cc2c(=O)n3ccccc3nc2n(CC(C)C)c1=NC(=O)C(C)Oc1ccccc1 (centres undefined) | inactive: 165%
CC(=O)Nc1ccc(NCc2nnc3n2CCCCC3)cc1 | inactive: 66%
Cc1ccc(Nc2ccc(N3CCN(C(=O)c4ccc([N+](=O)[O-])cc4Cl)CC3)nn2)cc1 | inactive: 120%
CCN1CCCC1CNCC(=O)NC1(C)C2CCC(C2)C1(C)C (centres undefined) | inactive: 100%
CC(=O)c1ccc(NC(=O)CSc2nnc3ccc(-c4ccc(F)cc4)nn23)cc1 | inactive: 77%
CCN(C(=O)c1sc2nc3n(c(=O)c2c1C)CCCC3)c1ccccc1F | inactive: 80%
Cc1ccc(CCNC(=O)c2cc(-c3ccccc3)n[nH]2)cc1 | inactive: 90%
CN(C)c1ccc(C(CNC(=O)c2ccc(C(C)(C)C)cc2)N2CCCC2)cc1 (centres undefined) | inactive: 103%
COc1ccc(CNC(=O)CCc2c(C)nn(-c3ccc(N4CCOCC4)nn3)c2C)c(OC)c1 | inactive: 85%

Source: PubChem BioAssay AID463173 (ICCB-Longwood Screening Facility, Harvard Medical School, 2010)
